# Data taken from article PMC4336329 (PLoS ONE, 2015).
# Among all 310,000 compounds or so, about 2,200 (0.71%) showed an effect of 50% or more. The effect is printed as a negative number. Some of the results follow.
# Biological target: human ether-à-go-go-related gene (hERG) potassium channel (human, UniProt Q12809)
# Assay: primary screen, population patch clamp on CHO cells stably expressing hERG
# Sequence of human ether-à-go-go-related gene (hERG) potassium channel (Q12809 whole entry, looked up): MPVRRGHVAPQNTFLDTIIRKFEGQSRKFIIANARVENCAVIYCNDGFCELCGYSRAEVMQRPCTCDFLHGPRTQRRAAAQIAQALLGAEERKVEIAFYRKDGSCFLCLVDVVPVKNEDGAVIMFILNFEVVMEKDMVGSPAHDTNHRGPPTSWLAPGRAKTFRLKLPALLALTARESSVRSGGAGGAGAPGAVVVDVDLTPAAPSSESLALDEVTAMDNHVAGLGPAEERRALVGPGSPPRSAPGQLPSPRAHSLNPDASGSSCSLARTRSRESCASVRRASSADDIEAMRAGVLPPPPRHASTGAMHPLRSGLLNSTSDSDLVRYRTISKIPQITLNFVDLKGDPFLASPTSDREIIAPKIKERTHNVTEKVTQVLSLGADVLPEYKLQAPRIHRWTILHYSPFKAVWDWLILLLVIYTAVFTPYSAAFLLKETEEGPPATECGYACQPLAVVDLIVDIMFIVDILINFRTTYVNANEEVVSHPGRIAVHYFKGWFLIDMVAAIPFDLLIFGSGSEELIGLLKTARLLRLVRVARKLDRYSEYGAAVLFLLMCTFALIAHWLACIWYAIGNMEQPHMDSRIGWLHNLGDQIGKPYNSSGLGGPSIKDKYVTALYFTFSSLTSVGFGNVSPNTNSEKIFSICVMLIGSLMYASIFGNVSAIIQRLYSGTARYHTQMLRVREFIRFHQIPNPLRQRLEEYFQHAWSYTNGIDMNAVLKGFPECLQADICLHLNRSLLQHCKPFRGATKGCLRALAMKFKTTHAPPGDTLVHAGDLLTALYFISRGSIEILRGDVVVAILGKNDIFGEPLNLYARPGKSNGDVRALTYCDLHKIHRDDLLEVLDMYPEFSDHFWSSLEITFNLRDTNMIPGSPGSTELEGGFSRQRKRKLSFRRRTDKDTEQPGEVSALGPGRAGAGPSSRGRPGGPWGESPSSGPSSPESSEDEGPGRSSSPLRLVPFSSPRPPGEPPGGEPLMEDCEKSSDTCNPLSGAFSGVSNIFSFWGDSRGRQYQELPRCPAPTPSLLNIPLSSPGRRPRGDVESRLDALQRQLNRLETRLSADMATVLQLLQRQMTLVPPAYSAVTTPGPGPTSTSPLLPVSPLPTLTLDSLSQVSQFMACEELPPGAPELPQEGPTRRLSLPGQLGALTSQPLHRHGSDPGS
row,Compound,"hERG current change (%, negative = inhibition) at 1uM"
1,COc1ccc(NC(=S)N(CCN2CCCCC2)Cc2ccco2)cc1,-9.86%
2,CC(C)(C)c1ccc(OCC(=O)N/N=C/c2cc(Br)ccc2OC(=O)c2ccco2)cc1,19.3%
3,O=C(CN1CCOCC1)N1CCN(c2ccc([N+](=O)[O-])cc2)CC1,-23.5%
4,CCCn1nc(C(=O)Nc2ccc(S(=O)(=O)Nc3ncccn3)cc2)c2ccccc2c1=O,15.1%
5,COc1ccc(C(=O)O)cc1S(=O)(=O)N1CCN(c2ccccn2)CC1,18.2%
6,CCOC(=O)c1ccc(Nc2nc(C)cc(C)n2)cc1,9.94%
7,O=C(CC12CC3CC(CC(C3)C1)C2)NCC(=O)N1CCCC1,9.16%
8,COc1ccc(Cl)cc1C(=O)NNC(=O)C1COc2ccccc2O1 (stereo not shown),6.95%
9,CC1(C)CC(NC2C3CC4CC(C3)CC2C4)CC(C)(C)N1.Cl (stereo not shown),13.5%
10,COc1ccc(C2C(=O)N(C3CCCCC3)CC(=O)N2C2CCCCC2)cc1 (stereo not shown),-18%
11,COc1ccccc1NS(=O)(=O)c1ccc(O)c(C(=O)OCc2cccc([N+](=O)[O-])c2)c1,9.96%
12,Cc1ncc([N+](=O)[O-])n1CCOc1nonc1N,3.79%
13,COC(=O)C1=C(c2ccccc2OCc2ccccc2)C[C@@H]2CC[C@H]1N2C(=O)NCc1ccc(N(C)C)cc1,19.8%
14,O=C(CN(C(=O)CNC(=O)c1ccco1)c1ccc(F)cc1)NC1CCCC1,9.54%
15,O=C(c1cccc(S(=O)(=O)Nc2ccccc2Cl)c1)N1CCN(C(=O)c2ccco2)CC1,11.6%
16,COc1ccc(CNC(=O)CN(c2ccc(C)cc2)S(=O)(=O)c2c(C)noc2C)cc1,14%
17,CCOC(=O)c1ccccc1NC(=O)COC(=O)CC1CCCCC1,5.51%
18,COc1ccc(NC(=O)c2cc(C)nc3ccccc23)cc1S(=O)(=O)Nc1ccccc1Cl,10%
19,CCCCc1nc(SCCOC)c2c(=O)n(C)c(=O)n(C)c2n1,6.1%
20,CCn1c(SCC(=O)NCCc2ccccc2)nnc1-c1ccco1,1.26%
21,COc1ccc(CSc2ncnc3sccc23)cc1F,14.2%
22,O=C(CC(c1ccccc1)c1ccccc1O)N1CCCC1 (stereo not shown),2.33%

row,Compound,"hERG current change (%, negative = inhibition) at 1uM"
1,CCOC(=O)[C@H]1[C@H]2COc3ccc(Br)cc3[C@@H]2N2C(=O)CN(Cc3ccc(F)cc3)C(=O)[C@@]12C,11.9%
2,Cn1c(SCc2ccc(F)cc2Cl)nc2ccccc2c1=O,14.4%
3,c1ccc(Cc2nc3ccccc3n2Cc2ccccc2)cc1,-0.477%
4,O=C(CCNNC(=O)c1ccncc1)NCc1ccccc1,11.9%
5,C[C@@H](NC(=O)c1ncn(C)c1C(=O)N[C@H](C)c1ccccc1)c1ccccc1,12%
6,O=C(Nc1ccccc1Cl)c1cc[n+](Cc2ccc([N+](=O)[O-])cc2)cc1.[Br-],9.59%
7,CCOC(=O)C1CCN(C(=O)Cc2ccc(-c3ccccc3)cc2)CC1,-3.96%
8,CCCCOC(=O)C1=C(C)NC2=C(C(=O)CCC2)C1c1cc(OC)ccc1OC (stereo not shown),5.13%
9,COc1ccc(CCNC(=O)C2CC(c3ccccc3C(F)(F)F)=NO2)cc1 (stereo not shown),13.3%
10,Cc1cc(C)c(NC(=O)CNC(=O)[C@@H]2CCCN2C(=O)c2cccs2)c(C)c1,10.8%
11,Cc1ccc(/C=C/C(=O)N2CC(=O)Nc3ccccc32)o1,7.37%
12,CC1=Nc2ccccc2N=C(NC(=O)CN2CCN(c3ccccc3)CC2)C1c1ccccc1 (stereo not shown),14.5%
13,Cn1c(N)c(S(=O)(=O)NCc2ccccc2)c(=O)n(C)c1=O,11.4%
14,Cc1ccc(NC(=O)COC(=O)CNC(=O)c2cccc([N+](=O)[O-])c2)cc1S(=O)(=O)N1CCCCCC1,-3.13%
15,CCOc1cc(NC(=O)c2cccs2)c(OCC)cc1NC(=O)CCC(=O)NCC1CCCO1 (stereo not shown),17.9%
16,O=C(c1ccco1)n1nc(-c2cccnc2)nc1NCc1ccco1,6.78%
17,CCOc1cc(CNCc2ccccn2)cc(Cl)c1OCC.Cl,7.83%
18,COC(=O)c1ccccc1NC(=O)CNC(=O)c1ccc(OC)c(OC)c1,8.47%
19,Cc1nc(S(=O)(=O)N2CCOCC2)c(C#N)c(C)c1Cl,10.9%
20,CCCCn1c(N)c(N(CCC(C)C)C(=O)C2CC(=O)N(CCc3ccc(OC)c(OC)c3)C2)c(=O)[nH]c1=O (stereo not shown),17.6%
21,NC(=O)c1ccc(-n2nnnc2SCC(=O)Nc2ccccc2F)cc1,9.62%
22,Cc1ccc(C(=O)N2C(=O)C(c3ccccc3)Oc3ccccc32)cc1 (stereo not shown),7.91%

row,Compound,"hERG current change (%, negative = inhibition) at 1uM"
1,CCc1nc2ccccc2n1CC(=O)Nc1cc(C)on1,6.48%
2,COc1cccc(NS(=O)(=O)c2ccc3c(c2)CC(=O)N3)c1,9.33%
3,O=C(C1CCN(S(=O)(=O)N2CCOCC2)CC1)N1CCc2ccccc21,14.9%
4,Cn1c(=O)c2[nH]c(CNc3ccc(C(=O)O)cc3)nc2n(C)c1=O,3.56%
5,COc1ccc(-c2onc3ccc(Br)cc23)cc1,15.6%
6,O=C(NCCc1ccc(F)cc1)c1n[nH]c2ccccc12,-0.0502%
7,CCc1noc(C)c1C(=O)Nc1ccccc1C(C)(C)C,14%
8,CCN(CC)CCN1C(=O)C(=O)/C(=C(/O)c2ccc(OC(C)C)cc2)C1c1ccncc1 (stereo not shown),18.1%
9,CN=C1S/C(=C\c2cn(CC(=O)OC)c3ccccc23)C(=O)N1C,5.75%
10,Cc1nnc(SCc2ccc([N+](=O)[O-])cc2)[nH]c1=O,8.32%
11,CCCC1(CCC)NC(=O)N(CC(=O)Nc2ccccc2OC)C1=O,15.6%
12,COc1ccc(CC(=O)NCC2CCCCC2)cc1OC,1.41%
13,CCCCCCCCS(=O)c1sc2nc(C)cc(C)c2c1N (stereo not shown),1.85%
14,N#Cc1cc2c(nc1SCC(O)CS(=O)(=O)Cc1ccc(Cl)cc1)CCCC2 (stereo not shown),3.87%
15,CN(C)c1ccc(S(=O)(=O)NCC(=O)NCC2CCCCC2)cc1[N+](=O)[O-],11.7%
16,O=C(NNc1nc(-c2ccccc2)c2cc(Br)ccc2n1)c1ccc(S(=O)(=O)N2CCOCC2)cc1,8.33%
17,FC(F)(F)c1ccc2c(c1)ncn2C1CCN(Cc2nnnn2C2CCCCC2)CC1,-10.5%
18,COc1ccc(CCNC(=O)Cn2cnc3ccccc3c2=O)cc1OC,17%
19,COc1cc(NC(=O)CN2CCCCCC2)cc(OC)c1,13.5%
20,CCc1ccc(/C=C2\C(=N)N3N=C(CC(=O)N4CCCCC4)SC3=NC2=O)cc1,18.8%
21,O=C(Nc1ncc(Cc2ccc(C(F)(F)F)cc2)s1)c1ccc(-c2cccc([N+](=O)[O-])c2)o1,13.5%
22,c1ccc(CNCCc2c[nH]c3ccccc23)cc1,7.06%

row,Compound,"hERG current change (%, negative = inhibition) at 1uM"
1,COC(=O)c1c(C)[nH]c(C)c1C(=O)c1ccccc1Cc1ccccc1,18%
2,COc1ccc(-c2nnc(SCC(=O)NC(C)c3ccccc3)o2)cc1OC (stereo not shown),9.61%
3,COc1ccc2nc(SCc3cccnc3)c(C#N)cc2c1,6.28%
4,CCc1nnc(NC(=O)CSc2nnc(-c3ccoc3C)n2-c2cccc(C)c2)s1,9.21%
5,CN(CC(=O)Nc1ccc(OC(F)(F)F)cc1)C(=O)C1CCC1,11.4%
6,O=C(CSc1nnc(Cc2cc(=O)[nH]c(=O)[nH]2)n1-c1ccc(Cl)cc1)NC1CCCC1,14%
7,COC(=O)C1=C(C)NC2=C(C(=O)CC(C)(C)C2)C1c1cnn(C)c1C (stereo not shown),17%
8,O=C(O)c1cc2c(s1)-c1ccccc1OC2,15.5%
9,O=C(CSc1nc2ccccc2c(=O)n1CC1CCCO1)N1CCN(c2ccccc2)CC1 (stereo not shown),-41.6%
10,O=C(Nc1ccc2c(c1)OCCO2)C1CCN(S(=O)(=O)c2ccc(Br)s2)CC1,14.8%
11,COc1ccc(S(=O)(=O)NCc2c(-c3ccccc3)noc2C)c(OC)c1,3.4%
12,Cl.OCCN(CCO)CC(O)CN1c2ccccc2Sc2ccccc21 (stereo not shown),1.67%
13,COc1ccc(CC(=O)Nc2cc3oc4ccccc4c3cc2OC)cc1,-4.28%
14,N#CC(=C=[N-])C1=C(C#N)C(c2ccccc2F)C([n+]2ccccc2)C(O)(C2CC2)N1 (stereo not shown),16.1%
15,O=S(=O)(CCN(CCS(=O)(=O)C(F)(F)F)CC1CCCO1)C(F)(F)F (stereo not shown),-8.93%
16,O=C(c1cn(-c2ccc(Cl)c(Cl)c2)nn1)C1CC1,12.3%
17,O=C(CSc1ccccc1)NCCSCc1ccccc1,14.1%
18,Cc1ccc(NC(=O)/C(=C\c2ccc3c(c2)OCO3)NC(=O)c2ccco2)cc1,8.58%
19,CCCC(C(=O)NC1CCCC1)N(CC1CCCO1)C(=O)c1snc(C(N)=O)c1N (stereo not shown),-24.4%
